# From PubChem BioAssay AID493005 (National Center for Advancing Translational Sciences (NCATS), 2010)
# Screen size: about 340,000 compounds; fewer than 10 were called active. Inconclusive results, whose numbers are uncertain, are shown with a selection of clear calls. Calls follow the shape of the dose curve; as a rule, active = well fitted inhibition curve with a large enough effect in the main read-out, with a control signal flat (not every such curve was filed as active); inconclusive = small, poorly fitted or top-dose-only effect, or effect the other way, or a change in a side signal; inactive = no such curve, though single readings can be large or run the other way. A potency beside an inconclusive call is a rough fit, not a confirmed value. “Side channel” marks fits to a control or component signal instead of the main read-out.
# Molecular target: Tumor susceptibility gene 101 protein (Homo sapiens) (UniProt Q99816)
# Assay: qHTS Assay for Iinhibitors of HIV-1 Budding by Blocking the Interaction of PTAP/TSG101; as to activity change, negative = inhibition: % of control where 0% means no effect
# Details: Fluorescence polarization, FITC-PTAP peptide / Tsg101 binding; activity change, negative = inhibition: at 115 µM (top of the series)
# Outline: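 FP read-out: FITC-PTAP peptide, 50 nM final, binding Tsg101 binding domain, 10 uM final; 20 min, r.t.; 10 mM HEPES pH 7.5, 0.15 M NaCl, 0.01% Tween 20, 3 mM EDTA, 0.1 mM TCEP.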
# Potency is read from the fitted curve at half-maximal effect; tags tell the direction and shape of the fitted curve or compound fluorescence and quenching.
# UniProt Q99816, sequence (Q99816 whole entry, looked up): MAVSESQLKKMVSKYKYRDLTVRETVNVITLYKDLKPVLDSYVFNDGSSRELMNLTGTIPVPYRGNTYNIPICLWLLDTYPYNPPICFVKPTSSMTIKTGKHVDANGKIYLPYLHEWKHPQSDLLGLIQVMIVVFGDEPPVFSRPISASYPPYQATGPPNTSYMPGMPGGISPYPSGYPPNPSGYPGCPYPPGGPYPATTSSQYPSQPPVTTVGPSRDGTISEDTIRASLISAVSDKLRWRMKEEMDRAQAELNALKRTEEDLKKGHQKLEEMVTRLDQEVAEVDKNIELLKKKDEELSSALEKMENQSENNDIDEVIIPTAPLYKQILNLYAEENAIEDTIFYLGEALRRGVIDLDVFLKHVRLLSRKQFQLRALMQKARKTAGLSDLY
Compound,Potency,"activity change, negative = inhibition"
CC(C)c1nnc(N2C(=O)C(O)=C(C(=O)c3cccs3)C2c2ccccc2)s1 (configuration not stated),"inconclusive: 79.4 µM [fluorescent, side channel, single point]",
CCN1CC=C2C(C#N)=C(N)C(C#N)(C#N)[C@H](c3ccoc3)[C@H]2C1,"inconclusive: 56.2 µM [fluorescent, side channel, partial curve, poor fit]",
CSc1nsc2nc(=O)c(/C=C3\C=Nc4ccccc43)c(N)n12,"inconclusive: 70.8 µM [fluorescent, side channel, partial curve, poor fit]",
CCOC(=O)Cn1c(=NC(=O)c2ccc([N+](=O)[O-])s2)sc2ccccc21,"inconclusive: 89.1 µM [fluorescent, side channel, partial curve]",
COc1ccc(OC)c2cc3ccccc3cc12,"inconclusive: 56.2 µM [fluorescent, partial curve, poor fit]",
CCOc1ccc(/C=C/C(=O)c2c(O)c3ccccc3oc2=O)cc1,"inconclusive: 79.4 µM [fluorescent, side channel, partial curve]",
CCN(CC)c1ccc(/C=C/C(=O)C2C(=O)C=C(C)OC2=O)cc1 (configuration not stated),"inconclusive: 39.8 µM [fluorescent, side channel, partial curve, poor fit]",
Nc1nc(-c2ccc(Oc3ccccc3)cc2)cs1,"inconclusive: 50.1 µM [fluorescent, side channel, partial curve, poor fit]",
O=c1nc2c(O)cccn2c2c1c(=O)[nH]c1ccccc12,"inconclusive: 56.2 µM [fluorescent, side channel, partial curve, poor fit]",
COc1ccc(Br)cc1-c1nc(CCl)cs1,"inconclusive: 50.1 µM [falling, partial curve, poor fit]",
CC(C)CC1=NN2C(=N)/C(=C\c3coc4ccccc4c3=O)C(=O)N=C2S1,"inconclusive: 50.1 µM [fluorescent, side channel, partial curve, poor fit]",
Oc1cccc2ccc(/C=C/c3ccccc3Br)nc12,,inactive: 0.129%
O=C(NC1CCCCC1)C(c1ccccc1)N(Cc1ccco1)C(=O)Cn1cnc2ccccc21 (configuration not stated),,inactive: -8.25%
CCCN1CCc2c(sc(NC(=O)c3ccc(S(=O)(=O)N(C)c4ccccc4)cc3)c2C(N)=O)C1,"inconclusive: 89.1 µM [fluorescent, side channel, single point]",
COc1ccc(OC)c(/C=C2\N=C(c3ccccc3)OC2=O)c1,"inconclusive: 56.2 µM [fluorescent, side channel, partial curve, poor fit]",
O=C(CN1C(=O)c2ccccc2S1(=O)=O)Nc1ncc(Cl)cc1Cl,"inconclusive: 56.2 µM [fluorescent, partial curve, poor fit]",
Cc1ccc(NS(=O)(=O)c2ccc(C(=O)N3CCN(S(=O)(=O)c4ccccc4)CC3)cc2)cc1,,inactive: 1.96%
Cc1ccc(-c2cccc(NC(=O)C3C4C=CC(C4)C3C(=O)O)c2)o1 (configuration not stated),"inconclusive: 56.2 µM [falling, partial curve, poor fit]",
Cn1c(SCC(=O)NN2C(=O)NC(C)(c3ccccc3)C2=O)nnc1-c1ccncc1 (configuration not stated),"inconclusive: 79.4 µM [quencher, side channel, partial curve, poor fit]",

Compound,Potency,"activity change, negative = inhibition"
CC(C)CSC1=NSC2=NC(=O)/C(=C\c3coc4ccccc4c3=O)C(=N)N12,"inconclusive: 14.1 µM [fluorescent, side channel, full curve, poor fit]",
O=C(OCCN1C(=O)c2cccc3c(N4CCOCC4)ccc(c23)C1=O)c1cccc(Cl)c1,"inconclusive: 56.2 µM [fluorescent, side channel, partial curve, poor fit]",
O=C1CC(N2C(=O)/C(=C/C=C/c3ccccc3)SC2=S)C(=O)N1c1ccccc1 (configuration not stated),"inconclusive: 79.4 µM [fluorescent, side channel, partial curve, poor fit]",
CN1C(=O)c2ccccc2NC(=O)[C@]12O[C@@H]2c1cccc(O)c1,"inconclusive: 50.1 µM [fluorescent, side channel, partial curve, poor fit]",
CC(C)Cn1c2c(c(O)c(C(=O)Nc3ccc(F)cc3)c1=O)CCCC2,,inactive: -2.83%
COc1cc(/C=C(\C#N)c2nc3ccccc3s2)ccc1OCC(=O)Nc1ccccc1,"inconclusive: 79.4 µM [fluorescent, side channel, partial curve, poor fit]",
CCCc1cc(=O)oc2cc(C)cc(O)c12,,inactive: -3.73%
O=C(NNC(=O)c1ccc2ccccc2c1O)NC1CCCCC1,,inactive: -2.2%
C=CCN1C=CC(=C/C=C(/C#N)C(=O)OCC)C=C1,"inconclusive: 56.2 µM [fluorescent, side channel, partial curve, poor fit]",
Cc1ccc(/C=C2/NC(=O)N(Cc3ccccc3)C2=O)s1,"inconclusive: 50.1 µM [fluorescent, side channel, partial curve, poor fit]",
CCOc1ccc(N=C2NC(=O)S/C2=C\c2ccc(N(C)C)cc2)cc1,"inconclusive: 56.2 µM [fluorescent, side channel, partial curve, poor fit]",
COc1ccccc1NC(CC(=O)c1ccccc1)C(=O)OCC(=O)c1ccc(Br)cc1 (configuration not stated),,inactive: -1.76%
O=C(NC1CCCC1)C(c1ccco1)N(Cc1ccccc1)C(=O)c1csnn1 (configuration not stated),,inactive: -6.33%
N=c1oc2ccc3ccccc3c2cc1-c1nc(-c2ccccc2)cs1,"inconclusive: 79.4 µM [fluorescent, side channel, partial curve]",
COc1cc2c(cc1OC)-c1cc3ccc4c(c3c[n+]1CC2)OCO4,"inconclusive: 56.2 µM [fluorescent, side channel, partial curve, poor fit]",
COC(=O)CCC[C@H]1CC2(C[C@H](CCCO[Si](C)(C)C(C)(C)C)N1C(=O)OC(C)(C)C)OCCO2,"inconclusive: 31.6 µM [quencher, side channel, partial curve, poor fit]",
CCN(CC)c1nc2ccccc2nc1C(C#N)C(=O)NCCc1ccccc1 (configuration not stated),"inconclusive: 50.1 µM [fluorescent, partial curve, poor fit]",
C=CCSc1nnc(C)c(/C=C/Nc2ccc(Cl)cc2)n1,"inconclusive: 56.2 µM [fluorescent, side channel, partial curve, poor fit]",
COc1ccc(C(=O)Nc2cccc(C(=O)N3CCCC3)c2)cc1,,inactive: -5.74%

Compound,Potency,"activity change, negative = inhibition"
COc1ccc2cc(CCNC(=O)c3cc4ccccc4o3)c(=O)[nH]c2c1,,inactive: -0.405%
CC1(C)Cc2c(C#N)c(SCCC#N)nc(N3CCOCC3)c2CS1,"inconclusive: 17.8 µM [falling, partial curve, poor fit]",
CCOC(=O)c1c(C)oc2c1c(CN1CCN(C(=O)OCC)CC1)c(O)c1ccccc12,"inconclusive: 56.2 µM [falling, partial curve, poor fit]",
CC1CCN(S(=O)(=O)c2ccc(C(=O)NC3CCS(=O)(=O)C3)cc2)CC1 (configuration not stated),,inactive: 0.15%
N#C/C(=C\c1ccc(N2CCOCC2)o1)C(=O)Nc1ccc(O)cc1,"inconclusive: 50.1 µM [fluorescent, side channel, partial curve, poor fit]",
S=C(Nc1ccc(N2CCOCC2)cc1)Nc1ccc2nc(-c3ccco3)c(-c3ccco3)nc2c1,"inconclusive: 56.2 µM [fluorescent, partial curve, poor fit]",
CCN1C(=O)/C(=C2/SC(C)=C(C)N2CC)SC1=S,"inconclusive: 70.8 µM [fluorescent, side channel, partial curve]",
Cc1cc(C)cc(N(CCC#N)C(=O)COC(=O)CCc2c[nH]c3ccccc23)c1,,inactive: -1.92%
CCOc1cc(N(CC)CC)ccc1/C=C(/C#N)c1nc2ccccc2[nH]1,"inconclusive: 31.6 µM [fluorescent, side channel, partial curve]",
C=CCn1c(=N)c(S(=O)(=O)c2ccc(C)c(C)c2)cc2c(=O)n3ccccc3nc21,"inconclusive: 89.1 µM [fluorescent, single point]",
Cc1ccc(C(=O)CSc2nc(N)cc(=O)[nH]2)cc1,,inactive: -4.78%
Cc1cc2nc3c(=O)[nH]c(=O)[nH]c3nc2c([N+](=O)[O-])c1N,"inconclusive: 56.2 µM [fluorescent, side channel, partial curve, poor fit]",
COc1ccc(-c2[nH]c3ccccc3c2SCCNC(=O)c2ccccc2)cc1,,inactive: 0.227%
CCOc1ccc(-c2nn(-c3ccccc3)cc2/C=C2\SC(=S)N(C3CCS(=O)(=O)C3)C2=O)cc1 (configuration not stated),"inconclusive: 56.2 µM [fluorescent, partial curve, poor fit]",
CCN(CC)c1ccc2cc(-c3nc4ccccc4[nH]3)c(=O)oc2c1,"inconclusive: 15.8 µM [fluorescent, side channel, partial curve, poor fit]",
O=C(O)c1cc(-c2ccc(/C=C3/SC(=S)N(Cc4ccccc4)C3=O)o2)ccc1Cl,"inconclusive: 11.2 µM [fluorescent, side channel, full curve, poor fit]",
O=S1(=O)C=C(SCc2ccc(Cl)c(Cl)c2)Nc2ccccc21,,inactive: -2.65%
Cc1ccc(C(C)C)c(OCCN2CCc3ccccc3C2)c1,,inactive: -1.64%
COC(=O)/C=C/c1ccccc1S(=O)(=O)N(Cc1ccccc1)Cc1ccco1,,inactive: -3.44%
